# Reference: publication PMC4336329 (PLoS ONE, 2015)
# In all, about 310,000 compounds went through this assay and about 14,000 (4.5%) showed an effect of 50% or more. The effect is printed as a negative number. The list shows a part of the results.
# Molecular target: human ether-à-go-go-related gene (hERG) potassium channel (human, UniProt Q12809)
# Assay: primary screen, population patch clamp on CHO cells stably expressing hERG
# 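Also: peak tail current of the secondary pulse compared with the same well before compound.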
# human ether-à-go-go-related gene (hERG) potassium channel, sequence (Q12809 whole entry, looked up): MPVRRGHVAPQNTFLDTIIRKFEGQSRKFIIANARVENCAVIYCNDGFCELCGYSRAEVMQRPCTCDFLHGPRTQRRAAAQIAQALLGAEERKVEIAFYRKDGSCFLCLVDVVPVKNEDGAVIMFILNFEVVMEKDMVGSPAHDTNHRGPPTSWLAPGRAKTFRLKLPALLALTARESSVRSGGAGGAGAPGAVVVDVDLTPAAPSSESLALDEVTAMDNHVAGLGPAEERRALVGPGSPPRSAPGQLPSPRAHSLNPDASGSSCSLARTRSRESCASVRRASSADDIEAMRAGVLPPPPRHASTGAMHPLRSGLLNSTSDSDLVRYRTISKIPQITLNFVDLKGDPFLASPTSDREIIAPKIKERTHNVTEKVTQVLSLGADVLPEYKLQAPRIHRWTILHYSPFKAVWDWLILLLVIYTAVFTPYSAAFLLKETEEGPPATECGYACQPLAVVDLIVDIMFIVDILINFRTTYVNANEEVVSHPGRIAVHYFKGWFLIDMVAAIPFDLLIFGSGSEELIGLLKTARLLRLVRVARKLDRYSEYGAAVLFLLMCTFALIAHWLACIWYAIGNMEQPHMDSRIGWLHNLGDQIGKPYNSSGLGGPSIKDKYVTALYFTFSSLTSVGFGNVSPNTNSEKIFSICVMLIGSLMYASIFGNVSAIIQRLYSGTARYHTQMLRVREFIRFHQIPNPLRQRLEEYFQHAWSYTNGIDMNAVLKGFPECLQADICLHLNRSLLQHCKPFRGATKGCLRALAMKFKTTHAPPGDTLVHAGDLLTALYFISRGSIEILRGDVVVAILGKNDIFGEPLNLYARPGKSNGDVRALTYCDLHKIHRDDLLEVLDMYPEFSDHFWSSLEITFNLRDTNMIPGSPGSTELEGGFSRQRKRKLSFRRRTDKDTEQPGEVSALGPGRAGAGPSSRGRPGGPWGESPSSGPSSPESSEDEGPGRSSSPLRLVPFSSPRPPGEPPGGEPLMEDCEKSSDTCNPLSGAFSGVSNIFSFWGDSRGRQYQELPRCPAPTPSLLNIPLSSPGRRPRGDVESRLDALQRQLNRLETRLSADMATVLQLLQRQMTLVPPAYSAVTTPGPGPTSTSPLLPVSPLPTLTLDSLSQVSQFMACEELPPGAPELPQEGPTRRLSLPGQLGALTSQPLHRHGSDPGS
row,Structure (SMILES),"hERG current change (%, negative = inhibition) at 10uM [%]"
1,Cc1cc(C)n(C(=O)CCC2COc3ccccc3O2)n1 (centres unmarked),-76.6
2,Cc1ccc(NC(=O)NC2C(NC(=O)Nc3ccc(C)cc3)N(C)C(=O)N2C)cc1 (centres unmarked),5.92
3,O=C(c1cccc(C(F)(F)F)c1)N1CCN(c2cc(=O)[nH]nc2-c2ccccc2)CC1,-44.3
4,CCc1cc(C(=O)OC)c(NC(=O)C2CC(=O)NN2Cc2ccccc2)s1 (centres unmarked),-29.7
5,COc1ccc(NC(=O)CCCN2C(=O)C(c3ccccc3)Oc3cccnc32)cc1OC (centres unmarked),1.23
6,c1nc(N2CCCCCC2)c2[nH]cnc2n1,2.29
7,CCCN(CCC)S(=O)(=O)c1ccc(C(=O)Nc2cc3oc4ccccc4c3cc2OC)cc1,3.38
8,CC1(C)Cc2nc3nc(SCC(=O)NCCc4ccccc4)n(-c4ccccc4)c(=O)c3cc2CO1,-21.9
9,CC(Nc1nc(N2CCN(CCO)CC2)nc2ccccc12)c1ccccc1 (centres unmarked),-60.9
10,CCCC(=O)Nc1ccccc1NC(C)=O,5.07
11,COc1ccc(C(=O)NC2CCCc3c2cnn3-c2cc(F)cc(F)c2)c(OC)n1 (centres unmarked),14.5
12,COc1cc(C(=O)N2CCN(c3ccc([N+](=O)[O-])cc3)CC2)ccc1OCc1c(C)noc1C,-60.2
13,COc1ccc(N2C(=O)CCC2(C#N)c2ccc(OC)cc2)cc1 (centres unmarked),3.67
14,Cc1ccc(S(=O)(=O)Nc2ccccc2CNc2ccc(Br)cn2)cc1,13.4
15,O=C(NCCc1ccccc1F)C1CC(=O)N(c2ccccc2)C1 (centres unmarked),1.17
16,CNS(=O)(=O)c1cccc(C(=O)OCC(=O)c2cc(C)n(-c3ccc4c(c3)OCO4)c2C)c1,1.89
17,N#CCSc1nc2ccccc2c(=O)n1CCC(=O)NC1CCCCC1,1.01
18,Cn1nnnc1SCC(=O)Nc1ccccc1N1CCOCC1,-3.35
19,CCNc1nnc(SCC(=O)N2c3ccccc3NC(=O)CC2C)s1 (centres unmarked),8.85
20,CCOC(=O)c1c(C)nc2c(c1C)/C(=N/O)CC(C)(C)C2,-7.31
21,CCOc1nc(C)cc(C)c1S(=O)(=O)c1cccc(Cl)c1,9.27

row,Structure (SMILES),"hERG current change (%, negative = inhibition) at 10uM [%]"
1,O=C(Nc1ncc(Cc2ccccc2)s1)C1CCCO1 (centres unmarked),8.27
2,Cc1cc(NC(=O)CSc2nnc(CNC(=O)c3ccccc3)o2)no1,4.66
3,COCCSc1ccccc1C(=O)Nc1ccccc1C(C)C,3.89
4,O=S(=O)(CCc1nnc(-c2ccc(Br)cc2)o1)c1ccc(Cl)cc1,4.62
5,CC1CCCC(NC(=O)CSC2CCCCC2)C1C (centres unmarked),-11.3
6,O=C(Cn1cnc2c(nnn2-c2ccccc2)c1=O)N1CCCc2ccccc21,-16.2
7,COc1ccc(-n2c(-c3ccccc3)c[n+]3c2CCC3)cc1.[Br-],-20.5
8,O=c1c(/C=N/N2CCOCC2)c(C(F)(F)F)[nH]n1-c1ccccc1,11.4
9,COC(=O)c1ccc(C)c(NC(=O)C(CCSC)NC(=O)c2cc(OC)c(OC)c(OC)c2)c1 (centres unmarked),13.6
10,CCN(CCCNC(=O)c1c(C)cc(=O)oc1C)c1cccc(C)c1,-65.3
11,COc1ccccc1NC(=O)C1Cc2ccccc2CN1C(=O)c1ccco1 (centres unmarked),-6.67
12,O=C(Cn1cnc2c(nnn2Cc2ccccc2F)c1=O)NCc1ccco1,-1.57
13,CNC(=O)COC(=O)c1ccc(NC(=O)CC#N)cc1,11.9
14,OC[C@H]1O[C@@H]2O[C@H]3[C@H](O)[C@@H](O)[C@@H](O[C@H]4[C@H](O)[C@@H](O)[C@@H](O[C@H]5[C@H](O)[C@@H](O)[C@@H](O[C@H]6[C@H](O)[C@@H](O)[C@@H](O[C@H]7[C@H](O)[C@@H](O)[C@@H](O[C@H]1[C@H](O)[C@H]2O)O[C@@H]7CO)O[C@@H]6CO)O[C@@H]5CO)O[C@@H]4CO)O[C@@H]3CO,-0.85
15,CCOC(=O)c1c(N)sc(C(O)(C(F)(F)F)C(F)(F)F)c1-c1ccc(F)cc1,13.7
16,Cc1ccc(NC(=S)Nc2ccc(Br)cc2)cc1,8.58
17,CC(=O)c1cccc(NC(=O)N2CCCC2C(=O)NC2CCCC2)c1 (centres unmarked),8.81
18,C/C(=N\NC(=O)CSc1nnc(C)s1)c1ccc(Cl)cc1,-15.5
19,CN(CC(=O)Nc1ccccc1Cl)C(=O)Cn1nnc(-c2ccc(F)cc2)n1,-11.7
20,CCN(CC)S(=O)(=O)c1ccc(NS(=O)(=O)c2ccc(OC)c([N+](=O)[O-])c2)cc1,-3.92
21,CCCN(CC(=O)Nc1ccc(F)c(F)c1F)C(=O)C1=COCCO1,0.613

row,Structure (SMILES),"hERG current change (%, negative = inhibition) at 10uM [%]"
1,Cc1ccc(-c2nc3ccccc3c(=O)n2-n2cccc2)cc1,-2.38
2,CCC(=O)N1CCc2cc(Br)cc(S(=O)(=O)NCC3CCCO3)c21 (centres unmarked),-7.01
3,S=c1[nH]c(-c2ccccc2)cs1,66.4
4,O=C(NC(=S)Nc1ccc(S(=O)(=O)NC2CCCCC2)cc1)c1cccs1,-0.405
5,Cc1cc(C(=O)CSc2nc(N)cc(=O)[nH]2)c(C)n1-c1ccc(OC(F)F)cc1,-1.41
6,Cc1ccc2cc(C#N)c(SCC(=O)N3CCCc4ccccc43)nc2c1C,6.26
7,Cc1ccccc1NC(=O)C(=O)NCc1ccccn1,6.07
8,CCOC(=O)c1[nH]c(C)c(C(=O)Nc2ccc(F)cc2)c1C,5.45
9,C=CCN(Cc1cccc(OC)c1OC)C(=O)Oc1ccccc1,5.03
10,O=C(NCc1nc2ccccc2[nH]1)C1=C[C@@H](c2csc3ccccc23)C[C@@H](OCc2ccc(CO)cc2)O1,-9.83
11,COc1ccccc1NC(=O)Cc1nc(CCl)cs1.Cl,2.52
12,CC(=O)c1sc(NC(=O)C2CC(=O)N(Cc3ccccc3)C2)nc1-c1ccccc1 (centres unmarked),-15
13,Cc1ccc(C)c(N2CCN(C(=O)C3CCN(S(=O)(=O)c4cccc5nsnc45)CC3)CC2)c1,-8.49
14,C=CCNc1nc(C(=O)OCC(=O)NCc2ccccc2OC)cs1,7.07
15,C/C(=N\N=C(c1ccccc1)c1ccccc1)c1cccs1,-3.59
16,COc1ccc(N2CCN(c3ncnc4scc(-c5ccccc5)c34)CC2)cc1,18.6
17,Cc1ccc(S(N)(=O)=O)cc1NC(=O)C(c1ccccc1)c1ccccc1,19.3
18,O=C(Nc1nnc(SCc2ccccc2F)s1)c1ccco1,5.38
19,O=C(O)c1ccc(Cn2c(SCc3cc(=O)n4cc(Br)ccc4n3)nc3ccsc3c2=O)cc1,16.5
20,COc1ccc(NC(=O)CCCN2C(=O)C(c3ccccc3)Oc3cccnc32)c(OC)c1 (centres unmarked),13.4
21,CCCc1c(C)[nH]c2ccc(NC(C)=O)cc2c1=O,12.5

row,Structure (SMILES),"hERG current change (%, negative = inhibition) at 10uM [%]"
1,O=C(NCCc1ccc(Cl)cc1)c1ccc(CS(=O)Cc2ccc(Cl)cc2)o1 (centres unmarked),-39.8
2,CCCCNCCOCCOc1ccc(C)cc1Br.O=C(O)C(=O)O,-32.1
3,CC(C)C[C@@H](NC(=O)C1CCC(CNC(=O)[C@@H]2CCCN2C(=O)OC(C)(C)C)CC1)C(=O)O (some centres unmarked),20.7
4,COc1ccc(C(=O)c2sc(Nc3ccccc3)nc2N)cc1,18.1
5,Cc1cc2oc(C(=O)Nc3ccc(S(=O)(=O)Nc4ncccn4)cc3)cc(=O)c2cc1Cl,-9.37
6,COc1cccc(N2CCN(C(=O)CCc3nnc4ccc(N5CCCC5)nn34)CC2)c1,-28.7
7,O=C(NC1CCCC1)C(c1cccnc1)N(Cc1ccc(F)cc1)C(=O)c1csnn1 (centres unmarked),-20.6
8,CCC1=Nc2ccc(Br)cc2C(c2ccccc2)N1CC(=O)OC (centres unmarked),-59.1
9,O=C(CCS(=O)(=O)c1ccccc1)NCCS(=O)(=O)c1ccccc1,13.1
10,O=C(CCNC(=O)c1ccccc1Cl)Nc1ccccc1N1CCCC1,10.4
11,CCOC(=O)C1CCCN(S(=O)(=O)CCNC(=O)c2cccc(OC)c2)C1 (centres unmarked),-6.37
12,CCOCCn1c(CN2CCOCC2)nc2c1c(=O)[nH]c(=O)n2C,15.5
13,Cn1c(=O)c(=O)n(C)c2cc(N3CCOCC3)c(NS(=O)(=O)c3ccc([N+](=O)[O-])cc3)cc21,2.58
14,CCCN1CCN(CCCNC(=O)CCn2nc(-c3ccccc3)ccc2=O)CC1,-47.4
15,O=C(NCc1nc2ccccc2[nH]1)c1ccc(S(=O)(=O)N2CCOCC2)cc1,7.47
16,COc1ccc(CCNc2nc(-c3ccncc3)cs2)cc1OC,-20.4
17,Cc1cccc(NC(=O)C23CCC(C)(/C(=N/O)C2)C3(C)C)c1 (centres unmarked),-6.79
18,Cc1cc(=O)[nH]c(SCC(=O)Nc2ccc(Br)cn2)n1,8.76
19,COc1cc(/C=N/NC(=O)C[n+]2ccccc2)cc(OC)c1OC(C)=O.[Cl-],9.53
20,N#CCCNc1ccc(OCCC#N)cc1,13.8
